# According to article PMC4336329 (PLoS ONE, 2015):
# About 2,200 (0.71%) of roughly 310,000 compounds showed an effect of 50% or more. Effects have a minus sign here. This is one part of the list.
# Target: human ether-à-go-go-related gene (hERG) potassium channel (human, UniProt Q12809)
# Assay: primary screen, population patch clamp on CHO cells stably expressing hERG
# human ether-à-go-go-related gene (hERG) potassium channel, sequence (Q12809 whole entry, looked up): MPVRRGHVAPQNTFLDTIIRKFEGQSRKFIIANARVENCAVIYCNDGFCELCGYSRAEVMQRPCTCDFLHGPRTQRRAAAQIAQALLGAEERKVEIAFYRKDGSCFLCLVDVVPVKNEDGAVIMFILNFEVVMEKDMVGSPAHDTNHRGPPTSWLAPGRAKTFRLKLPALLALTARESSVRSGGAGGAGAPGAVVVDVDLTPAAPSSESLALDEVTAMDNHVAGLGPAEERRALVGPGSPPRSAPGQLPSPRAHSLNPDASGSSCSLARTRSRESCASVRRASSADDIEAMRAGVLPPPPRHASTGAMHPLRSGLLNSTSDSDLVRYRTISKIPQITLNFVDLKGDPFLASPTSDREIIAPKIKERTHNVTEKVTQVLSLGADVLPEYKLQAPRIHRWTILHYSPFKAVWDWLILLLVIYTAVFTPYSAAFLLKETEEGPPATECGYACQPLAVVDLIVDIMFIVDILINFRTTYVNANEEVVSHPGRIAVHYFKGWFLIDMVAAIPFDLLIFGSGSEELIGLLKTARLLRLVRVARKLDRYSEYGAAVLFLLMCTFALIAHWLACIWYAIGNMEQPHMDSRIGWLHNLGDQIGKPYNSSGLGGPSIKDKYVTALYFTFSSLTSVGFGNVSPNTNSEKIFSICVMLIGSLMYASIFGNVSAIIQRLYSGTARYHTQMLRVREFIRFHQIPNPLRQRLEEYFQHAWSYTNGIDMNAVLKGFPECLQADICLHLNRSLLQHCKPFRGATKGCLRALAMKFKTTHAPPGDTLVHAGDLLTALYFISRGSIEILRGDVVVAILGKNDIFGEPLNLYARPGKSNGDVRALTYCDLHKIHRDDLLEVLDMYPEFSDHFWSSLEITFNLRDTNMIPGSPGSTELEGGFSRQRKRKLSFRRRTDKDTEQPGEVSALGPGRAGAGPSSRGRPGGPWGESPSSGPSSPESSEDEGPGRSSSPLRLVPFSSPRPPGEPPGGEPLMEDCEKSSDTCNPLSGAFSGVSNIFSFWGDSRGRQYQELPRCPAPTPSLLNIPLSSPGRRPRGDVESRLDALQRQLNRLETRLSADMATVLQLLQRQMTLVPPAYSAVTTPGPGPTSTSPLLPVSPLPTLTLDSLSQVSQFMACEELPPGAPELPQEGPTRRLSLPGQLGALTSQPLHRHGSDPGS
row,Structure (SMILES),"hERG current change (%, negative = inhibition) at 1uM"
1,CCCC(=O)Nc1ccc(C(N)=O)cc1,18.9%
2,CN(C)CCCN(C(=O)c1ccc(S(=O)(=O)N2CCc3ccccc3C2)cc1)c1nc2ccc(F)cc2s1.Cl,10%
3,CCCCn1c(N)c(N(CCOC)C(=O)CN2CC=C(c3ccccc3)CC2)c(=O)[nH]c1=O,10.3%
4,CCOC(=O)N1CCN(C(=O)c2oc3ccc(S(=O)(=O)N4CCCCC4)cc3c2C)CC1,-8.53%
5,CC(C)C[C@H](NC(=O)C1CCC(CNC(=O)[C@@H]2CCCN2C(=O)OC(C)(C)C)CC1)C(=O)O (some centres unmarked),6.16%
6,CC(CC(=O)N1CCN(c2ccc(C(F)(F)F)cn2)CC1)n1ccnc1 (centres unmarked),-12.7%
7,c1ccc(CSc2ncnc3c2sc2nc(N4CCOCC4)c4c(c23)CCCC4)cc1,10.8%
8,Cc1ccnc(N2CCCC(C(=O)NC3CC3)C2)n1 (centres unmarked),0.777%
9,Nc1ccccc1N=Cc1c(O)n(CCC2=CCCCC2)c(=O)[nH]c1=O,10.6%
10,COc1cc(C(=O)N2CCN=C2c2ccccc2)cc(OC)c1OC,11.9%
11,N#C/C(=C(/O)Cc1ccccc1)P(=O)(c1ccccc1)c1ccccc1,10.7%
12,COc1ccc(N2CC(O)=C(c3nc(-c4ccc(F)cc4)cs3)C2=N)cc1OC,-0.962%
13,CCNC(=O)CC1SC(=Nc2cccc(Cl)c2C)N(C)C1=O (centres unmarked),3.18%
14,C#CCOCCOCCOCCNc1nc(N2CCN(C(=O)[C@H](CCCCN)n3cc(C(N)CO)nn3)CC2)nc(N2CCN(C(=O)[C@H](CCC(=O)O)n3cc(C(N)[C@H](C)CC)nn3)CC2)n1.Cl (some centres unmarked),9.31%
15,CCOc1ccc(OCCOc2cccc(C(F)(F)F)c2)cc1,12.5%
16,COc1cc(/C=C2\S/C(=N/S(=O)(=O)c3ccc(C)cc3)NC2=O)c([N+](=O)[O-])cc1OC,-11.9%
17,O=C(O)CCC(=O)Nc1ccc(C(=O)OCC(=O)c2ccc(Cl)cc2Cl)cc1,10.8%
18,Cc1nnc(NC(=O)CSc2cn(CCNC(=O)c3ccccc3)c3ccccc23)s1,9.91%
19,CCOc1ccc(N(CC(=O)N2CCCCCC2)S(C)(=O)=O)cc1,14.9%
20,Cc1ccc(F)cc1NC(=O)CSc1nnc(CNC(=O)c2ccco2)n1C,1.14%
21,O=C(NC(=S)NCCc1ccccn1)c1ccco1,9.94%
22,O=C(c1ccc(Br)o1)N(c1ccccn1)C1CCCCC1,6.09%

row,Structure (SMILES),"hERG current change (%, negative = inhibition) at 1uM"
1,CS(=O)(=O)c1ccc(C2=C(c3ccccc3)C(=O)OC2)cc1,2.93%
2,CC1(C)CC(=O)C(C=NCCN2CCN(C(=S)Nc3ccc(F)cc3)CC2)=C(O)C1,-5.04%
3,COc1ccccc1C/C(N)=N/O,5.42%
4,Cc1ccc(S(=O)(=O)Oc2cc(N)c3c(n2)CCC3)cc1,14.6%
5,Cl.NC(=O)c1c(NC(=O)Cc2ccccc2)sc2c1CCN(Cc1ccccc1)C2,8.53%
6,COc1ccc(-c2ccc(C)cc2)cc1[C@H]1[C@H]2C=CC[C@@H](C)[C@@H]2C(=O)N1Cc1ccccc1,15.6%
7,CN(C)c1ccnc(Nc2ccccc2)c1C#N,11.6%
8,CCn1cc(CNC(=O)C2CCC(=O)N(C3CCCCCC3)C2)cn1 (centres unmarked),16%
9,O=C(Nc1ccc(F)c([N+](=O)[O-])c1)C1CC(=O)N(Cc2ccccc2)C1 (centres unmarked),-4.33%
10,O=C(Oc1c(-c2ccccc2)c(=O)n2c3c(cccc13)CC2)c1ccc(Cl)cc1,5.43%
11,Cc1c(C(=O)OC(C)C(C)C[N+](C)(C)C)oc2ccccc12.[I-] (centres unmarked),14.4%
12,CCCC1=Nc2cc(C(=O)NCCCOCC)ccc2Sc2ccccc21,7.93%
13,COc1cc(C(=O)Oc2c(CN3CCOCC3)cc(Cl)c3cccnc23)cc(OC)c1OC,-2.07%
14,CCOc1ccc(N(CC(=O)N/N=C/c2ccccn2)S(=O)(=O)c2ccc(Cl)cc2)cc1,10.4%
15,Cn1nc(Oc2nc(N3CCOCC3)nc(N3CCOCC3)n2)ccc1=O,0.746%
16,CCOC(=O)C1C(=O)N(C(=O)c2ccc(OC)cc2)CC1c1ccccc1 (centres unmarked),13.4%
17,CCCSc1oc(-c2ccco2)nc1S(=O)(=O)c1ccccc1,-10.1%
18,Cn1c(=O)c2[nH]c(-c3ccccc3Cl)c(O)c2n(C)c1=O,3.49%
19,C/C=N\NC(=O)CNC(=O)CNC(=O)c1ccccc1,11.6%
20,CC(/C=N/NC(=O)CN1CCN(Cc2ccc(Cl)cc2)CC1)=C\c1ccco1,-34.4%
21,CC(=O)Nc1ccc(Nc2ccc(S(=O)(=O)C(F)(F)F)cc2[N+](=O)[O-])cc1,2.42%
22,COc1ccccc1N1CCN(C(=O)Nc2cccc(Cl)c2)CC1,5.72%

row,Structure (SMILES),"hERG current change (%, negative = inhibition) at 1uM"
1,CCn1c(C)nnc1SCC(=O)Nc1cccc(C(F)(F)F)c1,14.5%
2,Cc1cc(C)c(S(=O)(=O)NC(CC(=O)O)c2cccc([N+](=O)[O-])c2)c(C)c1 (centres unmarked),11.8%
3,COc1ccccc1N1CCN(/N=C/c2ccc(O)c(O)c2)CC1,-1.27%
4,CCOC(=O)c1ccc(CSc2nnc(C)n2N)o1,9.42%
5,Cc1nn(CCC(N)=O)c2nc(-c3cccs3)cc(C(F)(F)F)c12,10.7%
6,CC1(C(=O)NC2CCCCCCC2)CCC(=O)N1Cc1ccco1 (centres unmarked),9.51%
7,Fc1ccccc1CNC(=S)Nc1cccc(C(F)(F)F)c1,0.631%
8,CCNC(=O)c1sccc1-n1cccc1,9.44%
9,CCN(CC)c1ccc(NC(=O)c2[nH]c(C)c(C(C)=O)c2C)c(C)c1,6.84%
10,COc1cccc(NC(=O)c2ccncc2)c1,14.4%
11,CN(C)c1ccc(NS(=O)(=O)c2cccc(Cl)c2)cc1,5.67%
12,O=c1c(-c2ccccc2)c[nH]n1-c1cccc([N+](=O)[O-])c1,19.9%
13,O=C(/C=N/O)Nc1ccc(F)cc1,0.539%
14,COc1ccccc1C1C([N+](=O)[O-])=CC([N+](=O)[O-])=CN1C (centres unmarked),7.2%
15,Cc1ccccc1-n1nc2c(c1NC(=O)c1cc3ccccc3oc1=O)CS(=O)C2 (centres unmarked),8.53%
16,O=[N+]([O-])c1ccccc1NC(=S)N/N=C/c1ccc(O)c(O)c1,12.2%
17,CN1CCCC(OC(=O)c2cc(Cl)cc(Cl)c2)C1.Cl (centres unmarked),-14.8%
18,CSCCC(NC(=O)c1ccc(Cl)cc1)C(=O)OCC(=O)N1CCCC1=O (centres unmarked),8.02%
19,NC(=O)CSc1nnc(-c2ccccc2Br)n1-c1cccc(C(F)(F)F)c1,8.84%
20,CCOc1ccc(CCNC(=O)COC(=O)c2cc([N+](=O)[O-])ccc2N2CCOCC2)cc1OCC,-10.2%
21,O=C(c1ccccc1)N1CCN(C(=O)c2cc3ccccc3o2)CC1,0.931%
22,CCOC(=O)c1snc(C(=O)NC2CCCCC2)c1N,-2.62%

row,Structure (SMILES),"hERG current change (%, negative = inhibition) at 1uM"
1,c1ccc(Cc2noc(CN3CCN(C4CCc5ccccc5C4)CC3)n2)cc1 (centres unmarked),-76.1%
2,Cc1cc(NS(=O)(=O)c2ccc(NC(=O)/C=C/c3c(F)cccc3Cl)cc2)nc(C)n1,18.5%
3,Cc1cccc(/C=C/c2onc(C)c2[N+](=O)[O-])n1,14.8%
4,c1coc(-c2nnc3sc(C4CCCCC4)nn23)c1,-5.14%
5,N=c1oc2ccccc2cc1C(=O)Nc1cccc(F)c1,18.9%
6,Cc1ccccc1NC(=O)Cc1nc(COC(=O)COc2ccccc2C(C)C)cs1,1.34%
7,O=C(OCC1CC(c2ccccc2)=NO1)c1ccc(Br)cc1 (centres unmarked),10.1%
8,CC(=O)Nc1sc2c(c1C#N)CCCCC2,16.2%
9,Nc1nc(Nc2ccccc2)nc(NCc2ccccc2)c1[N+](=O)[O-],7.82%
10,CC(C)c1ccc(NC(=O)CSc2n[nH]c(=O)n2-c2cccnc2)cc1,10.6%
11,CN(Cc1ccccc1)C(=O)CSc1n[nH]c(N)n1,9.02%
12,COc1ccc(C)cc1COC(=O)c1[nH]c(C)c(C(C)=O)c1C,8.88%
13,Cc1cnn(-c2cc(N/N=C/c3ccc(F)cc3)ncn2)c1,8.04%
14,CCOC(=O)N1CCN(C(=O)CCc2ccccc2)CC1,22.2%
15,COc1ccc(C(=O)N/C(=C/c2ccc(Cl)cc2)C(=O)Nc2ccc(C(=O)O)cc2)cc1,-1.1%
16,COc1ccc(/C=C2\SC(=S)N(CCC(=O)Nc3cccc(O)c3)C2=O)cc1OC,11.8%
17,CCOc1ccc2[nH]c3c(NCCC(C)C)ncnc3c2c1,4.7%
18,Cc1csc(NC(=O)CSc2nnc(NC(=O)COc3ccccc3)s2)n1,12.8%
19,CCN(C(=O)Cc1c(C(=O)O)n(CC)c2ccccc12)c1cccc(C(F)(F)F)c1,13.4%
20,Cc1cc(C)c2nc(N(CCCN(C)C)C(=O)c3ccc4c(c3)CCCC4)sc2c1.Cl,6.37%
